PubChem BioAssay AID1768 (National Center for Advancing Translational Sciences (NCATS), 2009)
Out of some 270,000 compounds screened, about 620 (0.23%) were called active. The shares of active, inactive and inconclusive entries below differ from those in the screen. Calls follow the shape of the dose curve; as a rule, active = well fitted inhibition curve with a large enough effect in the polarisation, with a control signal flat (not every such curve was filed as active); inconclusive = small, poorly fitted or top-dose-only effect, or effect the other way, or a change in a side signal; inactive = no such curve, though single readings can be large or run the other way; the % refers to the polarisation. A potency beside an inconclusive call is a rough fit, not a confirmed value. A note “side channel” means that the fit belongs to a control or component signal, not to the main read-out.

Biological target: Menin (Homo sapiens) (UniProt O00255)
Assay: qHTS Assay for Inhibitors Targeting the Menin-MLL Interaction in MLL Related Leukemias: Competition With Texas Red Labeled MLL-derived Mutant Peptide; as to FP activity change, negative = inhibition: % of control where 0% means no effect
Conditions: fluorescence polarization; FP activity change, negative = inhibition: at 61.6 µM (top of the series)
Potency is read from the fitted curve at half-maximal effect; tags tell the direction and shape of the fitted curve or compound fluorescence and quenching.

UniProt O00255, sequence (O00255 whole entry, looked up): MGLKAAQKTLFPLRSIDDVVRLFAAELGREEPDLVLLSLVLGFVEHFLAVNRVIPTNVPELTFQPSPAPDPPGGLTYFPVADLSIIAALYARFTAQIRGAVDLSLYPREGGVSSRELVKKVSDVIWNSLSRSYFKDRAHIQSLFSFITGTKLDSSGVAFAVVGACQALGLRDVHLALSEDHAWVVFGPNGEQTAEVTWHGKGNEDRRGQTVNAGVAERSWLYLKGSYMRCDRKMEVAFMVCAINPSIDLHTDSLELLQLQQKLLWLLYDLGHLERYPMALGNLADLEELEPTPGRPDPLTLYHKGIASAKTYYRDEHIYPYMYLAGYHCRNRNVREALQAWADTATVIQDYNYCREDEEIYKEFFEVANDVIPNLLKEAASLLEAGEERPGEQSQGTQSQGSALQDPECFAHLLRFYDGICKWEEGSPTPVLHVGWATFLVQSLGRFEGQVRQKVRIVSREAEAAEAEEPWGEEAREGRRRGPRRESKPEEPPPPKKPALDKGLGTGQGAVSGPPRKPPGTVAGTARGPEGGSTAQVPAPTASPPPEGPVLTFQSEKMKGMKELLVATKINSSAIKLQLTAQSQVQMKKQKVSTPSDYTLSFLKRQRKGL

FP activity change, negative = inhibition, inactive:
COc1cc(/C=C/c2nc3ccccc3c(=O)[nH]2)ccc1OC(F)F 38.3%
O=C(NC[C@H](O)c1ccccc1)c1ccccc1 -4.45%
OCC1OC(c2ccccc2)C=CC1Oc1cc(Cl)cc(Cl)c1 (stereo unspecified) 7.48% [at 11.7 µM]
COCC(=O)N(Cc1cc2ccc(C)cc2[nH]c1=O)c1ccc(OC)cc1 3.09%

Potency, inconclusive:
Cc1cc2oc(C(=O)NCCc3ccc(S(N)(=O)=O)cc3)cc(=O)c2cc1C 39.8 µM [fluorescent, side channel, single point]
O=C(COC(=O)CCOc1ccccc1)NCCC1=CCCCC1 20 µM [inhibitor, single point]
Cc1nnc(C)c2c(C)n(Cc3ccc4c(c3)OCO4)c(C)c12 25.1 µM [fluorescent, side channel, single point]
CCOC(=O)C1(CCOC)CCN(C(=O)c2ccccc2-c2cccc(C)c2)CC1 14.1 µM [inhibitor, partial curve, poor fit]
O=C(Cn1nnc(-c2ccc(F)cc2)n1)Nc1ccc2c(c1)OCCO2 17.8 µM [inhibitor, single point]
C/C(=N\Nc1ccc(F)cc1F)c1cccs1 22.4 µM [quencher, side channel, single point]
Cc1ccc(C2=NOC(=O)/C2=C\C=C\c2ccccc2)cc1 14.1 µM [quencher, side channel, partial curve]
Cc1cccc(C)c1NC(=O)CSc1cc(C(=O)c2nccn2C)c2ccccc2n1 8.91 µM [fluorescent, side channel, single point]
CCOC(=O)C1CCCN(C2=NC(=O)/C(=C/c3ccc(O)c(OCC)c3)S2)C1 (stereo unspecified) 31.6 µM [inhibitor, single point]
Cc1cc2oc(=O)c(CC(=O)NCCCN(C)C)c(C)c2c2occ(C(C)(C)C)c12 3.55 µM [inhibitor, partial curve, poor fit]
O=C(CSc1nc2ccccc2[nH]1)N1c2ccccc2Sc2ccccc21 28.2 µM [inhibitor, single point]
CC(C)(C)NC(=O)C(c1ccc(F)cc1)N(Cc1ccco1)C(=O)Cn1nnc(-c2cccs2)n1 (stereo unspecified) 39.8 µM [fluorescent, side channel, single point]
COc1cc(C2Nc3cccc4cccc(c34)N2)ccc1O 12.6 µM [quencher, side channel, partial curve]
O=C(c1cc([N+](=O)[O-])cc([N+](=O)[O-])c1)N(Cc1nnc(-c2ccccc2Cl)o1)C1CC1 7.94 µM [inhibitor, partial curve]
COc1cc(CN2CCN(C(=O)CC(C)C)CC2)cc(OC)c1OC 3.55 µM [inhibitor, single point]
O=C1c2ccccc2C(=O)c2cc(S(=O)(=O)Nc3cccc4cccnc34)ccc21 8.91 µM [quencher, side channel, full curve]
CC1=NN(c2nc(-c3ccc(F)cc3)cs2)C(=O)C1 31.6 µM [quencher, side channel, single point]
O=C(N/N=C/c1cccc2ccccc12)c1cccc(F)c1 22.4 µM [quencher, side channel, partial curve]
N#CC1=C(N)S[C@@H](C(=O)c2ccc(F)cc2)[C@@H]1c1cccs1 31.6 µM [quencher, side channel, single point]
COc1cc2nc(N3CCN(c4cc(C)ccc4C)CC3)nc(N)c2cc1OC 17.8 µM [inhibitor, partial curve, poor fit]
Cc1ccccc1NC(=O)NNC(=O)c1ccc2ccccc2c1O 39.8 µM [quencher, single point]
N#Cc1c(SCC(=O)Nc2nc3ccc(Br)cc3s2)sc2c(O)cc(=O)[nH]c12 12.6 µM [quencher, side channel, partial curve]
Brc1cccc(OCCCN2CCCCCC2)c1 28.2 µM [fluorescent, side channel, single point]
O=C(C[n+]1cc(-c2ccc(Br)cc2)n2c1CCCCC2)c1ccccc1 3.16 µM [fluorescent, side channel, full curve]
O=C(N/N=C/c1ccccc1)c1c(O)c2ccccc2[nH]c1=O 39.8 µM [quencher, side channel, single point]
CC1CCN(C(=O)c2cccc(NC(=O)c3cccs3)c2)CC1 15.8 µM [inhibitor, partial curve]
CCN(CC)c1ccc(-c2nnc(SCC(=O)Nc3ccccc3C#N)n2-c2ccccc2)cc1 2.82 µM [inhibitor, partial curve]
CCc1nnc(NC(=O)CSc2nnc(-c3ccccc3NC(=O)c3ccccc3)o2)s1 14.1 µM [quencher, side channel, partial curve]
COc1ccc(Nc2nc3ccccc3n3nnnc23)cc1 35.5 µM [quencher, side channel, single point]
COc1ccc(-n2c(=S)[nH]c3cc(C(=O)Nc4ccc(F)cc4)ccc3c2=O)c(OC)c1 11.2 µM [quencher, side channel, partial curve]
CCC1CCCCN1CCN1C(=O)C2C(C(=O)Nc3ccc(OC)cc3)C3C=CC2(O3)C1C(=O)NC1CCCCC1 (stereo unspecified) 25.1 µM [inhibitor, single point]
COc1cccc(-c2nn(C)c3sc(C(=O)NCc4ccc(C)o4)cc23)c1 3.16 µM [quencher, side channel, full curve]
Cc1ccc(C(C)C)c(OCc2ccc(C(=O)N/N=C/c3ccc(O)c(O)c3)cc2)c1 1.78 µM [quencher, side channel, full curve]
Fc1ccc(CNC(=S)Nc2ccc(OC(F)F)cc2)cc1 22.4 µM [quencher, side channel, single point]
COc1ccc(-c2cc(=O)c3c(OC)c(OC)c(OC)c(OC)c3o2)cc1 10 µM [inhibitor, partial curve, poor fit]
Cc1cc2cc(CNC(=O)c3ccc(S(=O)(=O)N4CCCCC4)cc3)ccc2n1C 3.98 µM [fluorescent, side channel, full curve]
CNc1ccn(C2CCCO2)c(=O)n1 (stereo unspecified) 2.24 µM [inhibitor, full curve, poor fit]
COc1ccccc1C=NC(CO)C(O)c1ccc([N+](=O)[O-])cc1 (stereo unspecified) 10 µM [inhibitor, partial curve]
CCOc1ccccc1Nc1nc(-c2sc(NC(=O)c3ccco3)nc2C)cs1 14.1 µM [quencher, side channel, partial curve]
CC(=O)c1ccc(N2CCN(C(=O)CCNC(=O)Cn3ccc4ccccc4c3=O)CC2)cc1 39.8 µM [inhibitor, partial curve]
CN1CCN(CCCNC(=O)c2ccc(/C=C3/Sc4ccccc4N(Cc4cccc(Cl)c4)C3=O)cc2)CC1 10 µM [fluorescent, side channel, partial curve]
NNc1cc([N+](=O)[O-])cc2c1C(=O)N(Cc1ccccc1)S2=O (stereo unspecified) 14.1 µM [quencher, side channel, partial curve]
O=C(Nc1ccc(Br)cn1)c1ccc(Cl)s1 15.8 µM [quencher, side channel, partial curve]
Cc1cccc(-c2nc3ccccc3c(=O)n2NC(=O)c2ccc([N+](=O)[O-])c(C)c2)c1 20 µM [quencher, side channel, partial curve]
COc1cc(C(=O)N2CCC(NC(=O)C(Cc3ccc(C(C)C)cc3)NC(C)=O)CC2)cc(OC)c1OC (stereo unspecified) 2.51 µM [inhibitor, partial curve, poor fit]
COc1cccc(Cn2c(=O)c(-c3cccc(C#N)c3)nc3cnc(Nc4ccccc4)nc32)c1 1.78 µM [quencher, side channel, full curve]
O=C(O)c1ccc(CSc2nnc(COc3ccc(Cl)cc3Cl)o2)cc1 17.8 µM [quencher, side channel, partial curve]
COc1ccc(S(=O)(=O)N2CCOCC2)cc1C(=O)Nc1ccc2c(c1)OCO2 20 µM [inhibitor, single point]
O=C(Nc1ccccc1F)c1cccc(C(=O)Nc2ccccc2F)c1 39.8 µM [fluorescent, side channel, single point]
CCc1nc2scc(-c3cccs3)c2c(=O)o1 35.5 µM [quencher, side channel, single point]
CCOC(=O)C1CCN(Cc2cnc(Oc3ccc(C(C)(C)C)cc3)s2)CC1 3.16 µM [inhibitor, partial curve]
COc1ccc(CN(C(=O)Cn2nnc(-c3ccc(C)o3)n2)C(C(=O)NCC2CCCO2)c2ccco2)cc1 (stereo unspecified) 39.8 µM [quencher, side channel, single point]
